The list shows a part of the results.

Assay in all cases: glycan array binding signal (z-score within array); higher = stronger binding
What all share (conditions): glycan notation: IUPAC condensed, linker removed

The target in experiment [1] is Gal(b1-3)GlcNAc(b1-2)Man(a1-3)[Gal(b1-3)GlcNAc(b1-2)Man(a1-6)]Man(b1-4)GlcNAc(b1-4)GlcNAc. The gist of the method: (§1)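 Columns mapping to the same glycan were averaged after glycan names were converted to IUPAC-condensed notation. The data come from 3228 arrays in the Consortium for Functional Glycomics database, limited to those with an available protein sequence. Binding is reported as a within-array Z-score averaged across arrays of one protein sequence and across linkers.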

The target of experiment [2] is Gal(b1-3)GlcNAc(b1-2)Man(a1-3)[Gal(b1-3)GlcNAc(b1-2)Man(a1-6)]Man(b1-4)GlcNAc(b1-4)[Fuc(a1-6)]GlcNAc. The gist of the method: as §1
For experiment [3], the target named is Gal(b1-3)GlcNAc(b1-2)Man(a1-3)[GlcNAc(b1-4)][Gal(b1-3)GlcNAc(b1-2)Man(a1-6)]Man(b1-4)GlcNAc(b1-4)GlcNAc. The gist of the method: as §1
Experiment [4] concerns the target Gal(b1-3)GlcNAc(b1-2)[Gal(b1-3)GlcNAc(b1-6)]Man(a1-6)[Gal(b1-3)GlcNAc(b1-2)Man(a1-3)]Man(b1-4)GlcNAc(b1-4)GlcNAc. The gist of the method: as §1
Experiment [5] addresses Gal(b1-3)GlcNAc(b1-3)Gal(b1-3)GlcNAc. In outline:
as §1

Experiment [6] addresses Gal(b1-3)GlcNAc(b1-3)Gal(b1-4)Glc. The gist of the method: as §1
Experiment [7] addresses Gal(b1-3)GlcNAc(b1-3)Gal(b1-4)GlcNAc. In outline:
as §1

Experiment [8] deals with Gal(b1-3)GlcNAc(b1-3)Gal(b1-4)GlcNAc(b1-2)Man(a1-3)[Gal(b1-3)GlcNAc(b1-3)Gal(b1-4)GlcNAc(b1-2)Man(a1-6)]Man(b1-4)GlcNAc(b1-4)GlcNAc. In outline:
as §1

The target of experiment [9] is Gal(b1-3)GlcNAc(b1-3)Gal(b1-4)GlcNAc(b1-2)[Gal(b1-3)GlcNAc(b1-3)Gal(b1-4)GlcNAc(b1-6)]Man(a1-6)[Gal(b1-3)GlcNAc(b1-3)Gal(b1-4)GlcNAc(b1-2)Man(a1-3)]Man(b1-4)GlcNAc(b1-4)[Fuc(a1-6)]GlcNAc. The gist of the method:
as §1

For experiment [10], the target named is Gal(b1-3)GlcNAc(b1-3)Gal(b1-4)GlcNAc(b1-3)Gal(b1-4)GlcNAc(b1-2)[Gal(b1-3)GlcNAc(b1-3)Gal(b1-4)GlcNAc(b1-3)Gal(b1-4)GlcNAc(b1-6)]Man(a1-6)[Gal(b1-3)GlcNAc(b1-3)Gal(b1-4)GlcNAc(b1-3)Gal(b1-4)GlcNAc(b1-2)Man(a1-3)]Man(b1-4)GlcNAc(b1-4)[Fuc(a1-6)]GlcNAc. The gist of the method:
as §1

Experiment [11] addresses Gal(b1-3)GlcNAc(b1-3)Gal(b1-4)GlcNAc(b1-6)[Gal(b1-3)GlcNAc(b1-3)]Gal(b1-4)Glc. The gist of the method: as §1
For experiment [12], the target named is Gal(b1-3)GlcNAc(b1-3)Gal(b1-4)[Fuc(a1-3)]GlcNAc. The gist of the method:
as §1

In experiment [13] the target is Gal(b1-3)GlcNAc(b1-3)Gal(b1-4)[Fuc(a1-3)]GlcNAc(b1-6)[Gal(b1-3)GlcNAc(b1-3)]Gal(b1-4)Glc. In outline:
as §1

In experiment [14] the target is Gal(b1-3)GlcNAc(b1-3)GalNAc. The gist of the method: as §1
For experiment [15], the target named is Gal(b1-3)GlcNAc(b1-6)Gal(b1-4)GlcNAc. In outline:
as §1

Experiment [16] concerns the target Gal(b1-3)GlcNAc(b1-6)GalNAc. In outline: as §1
Experiment [17] concerns the target Gal(b1-3)GlcNAc(b1-6)[Gal(b1-3)]GalNAc. In outline: as §1
A further experiment deals with Gal(b1-3)GlcNAc6S. In outline: as §1
For experiment [18], the target named is Gal(b1-3)[Fuc(a1-4)]GlcNAc. The gist of the method: as §1
The target in experiment [19] is Gal(b1-3)[Fuc(a1-4)]GlcNAc(b1-2)Man. The gist of the method:
as §1

Experiment [20] deals with Gal(b1-3)[Fuc(a1-4)]GlcNAc(b1-2)Man(a1-3)[Gal(b1-3)[Fuc(a1-4)]GlcNAc(b1-2)Man(a1-6)]Man(b1-4)GlcNAc(b1-4)[Fuc(a1-6)]GlcNAc. In outline:
as §1

Experiment [21] has as its target Gal(b1-3)[Fuc(a1-4)]GlcNAc(b1-3)Gal(b1-3)[Fuc(a1-4)]GlcNAc. In outline: as §1

B1: InvD YPIII (Yersinia pseudotuberculosis), B1JSC0 (protein)
chain: MIKYFSFFKKPEPIVGILPNRQSHHILPTHIRRVAWGTLLLQLFIPLSVSFSPAIAAMKASKADTMVSYSSTEPYVLGSGETVAMVAKKYGITVDELKKINIYRTFSRPFTALTTGDEIDIPRKASPFSVDNNKDNRLSVENTLAGHAVAGATALSNGDVAKSGERMVRSAASNEFNNSAQQWLSQFGTARVQLNINDDFHLDGSAADVLIPLYDNEKSILFTQLGARNKDSRNTVNMGAGVRTFQGNWMYGANTFFDNDLTGKNRRIGVGAEAWTDYLKLSANNYFGITDWHQSRDFIDYNERPANGYDLRAEAYLPSYPQLGGKAMYEKYRGDDVALFGKDNRQKNPHAITAGVNYTPIPLVTIGAEHRAGKGGQNDSNINFQLNYRLGETWQSHIDPSAVAASRTLAGSRYDLVERNNHIVLDYQKQNLVRLSLPDSLAGDPFSQLSVTAQVTATHGLERIDWQSAELMAAGGVLKQTSKNGLEITLPEYQMNRTGGNSYILNAIAYDTQGNASSQASMLITVNAQKINIANSTLVAVPINIEANNSDTSVVTLTLKDDNNIPVTGQDVTFLSPLGTLSAMTDSGNGVYTATLTAGTVSGTTAVSSNINGSALDMTPATVTLNGNSGELSITHSMLVAAPVNIEANGSDTSVVTLTLRDSNNNPVTGQTVTFAGTLGTLGAVTEGSSGVYTATLTAGIMVGTSSITASVNSTALGVTPATVTLNGDSGNLSTTNSTLVAAPVNIEANSSDTSVVTLTLRDNNNNPVTGQTVVFTSTLGTLGNVTEQASGVYTATLTAGTVSGVASLSVSVGGNALGVTPATVTLNGDSGNLSTTNSTLVAAPVNIEANSSDTSVVTLTLRDNNNNPVTGQTVNFAGTLGTLGTVSEGSSGVYTTTLTAGTVAGVASLSVNVGGNALGVTPATVTLNGNSGNLSATNSTLVAAPVNIEANSSDTSVVTLTLRDNNNNPVTGQTVAFTSTLGTLGNVTEQASGVYTATLTAGTVSGVASLSVSVNSNALGVTPATVTLNGDSGNLSTTNSTLVAAPVNIEANSSDTSVVTLTLRDNNNNPVTGQTVAFTSTLGTLGNVTEQASGLYTATLTAGTVSGVASLSVNVGGNALGVTPATVTLNGDSGNLSATNSTLVAAPVNIEANSSDTSVVTLTLRDNNNNPVTGQTVAFTSTLGTLGNVTEQASGLYTATLTAGTVSGVASLSVNVGGTALGVTPATVTLNGDSGNLSTTNSTLVAAPVNIEANSSDTSVVTLTLRDNNNNPVTGQTVAFTSTLGTLGNVTEQASGLYTATLTAGTVSGVASLSVSVNSTALGVTPATVTLNGDSGNLSTTNSTLVAAPVNIEANSSDTSVVTLTLRDNNNNPVTGQTVAFTSTLGTLGNVTEQASGVYTATLTAGTVAGVASLSVNVGGNALGVTPATVTLNGDSGNLSTTNSTLVAAPVNIEANSSDTSVVTLTLRDNNNNPVTGQTVAFTSTLGTLGNVTEQASGVYTATLTAGTVSGVASLSVSVGSSALGVTPATVTLNGDSGNLSTTNSTLVAAPVNIEANNSDTSVVTLTLRDNNNNPVTGQTVAFTSTLGTLGNVTEQASGVYTATLTAGTVSGVASLSVSVNSNALGVTPATVTLNGDSGNLSTTNSTLVAAPVNIEANSSDTSVVTLTLRDNNNNPVTGQTVVFTSTLGTLGNVTEQASGLYTATLTAGTVSGVASLSVSVGGNALGVTGNITLAPGALDAARSILAVNKPSINADDRIGSTITFTAQDAQGNAITGLDIAFMTDLENSQIMTLVDHNDGTYTANINGTQTGIANIAVQSSGATIAGLAATMVTITPGAWNTTQATPVMTVALPITTCQSSSGVYKRYYIGIVTHELYDNYGNEISGILTYNLGAGRYTTVTSQNSSVSGSNGLTRRSNSPVSHFILTSDAYTSQAACYAERIANVNVTITVTAITDDFKTSAVNKVFILGTGSN
For B1, the “glycan array binding signal (z-score)” value in experiment [1] is 0.108; in experiment [2], 0.497; in experiment [3], 0.074; in experiment [4], -0.201; in experiment [5] it was -0.224; in [6], -0.069. The “glycan array binding signal (z-score)” value in experiment [7] is -0.261; in experiment [8], -0.358; in experiment [9], -0.065; in experiment [10], 0.357; in [11], -0.192; in experiment [12], -0.098. For the same molecule, the “glycan array binding signal (z-score)” value was -0.245 in experiment [13]; -0.241 in experiment [14]; -0.168 in [15]; -0.16 in experiment [16]; -0.299 in experiment [17]; 0.273 with Gal(b1-3)GlcNAc6S. The “glycan array binding signal (z-score)” value was -0.119 in experiment [18], -0.101 in experiment [19], 0.771 in experiment [20] and -0.223 in experiment [21].

The values are drawn from the supplement of paper PMC8728848.
